Results as given in article PMC13083723 (Patterns, 2026).
Among all 5,400 compounds or so, about 190 (3.5%) showed an effect of 50% or more. This is one part of the list.

Tested on: Vero-E6
Assay: primary screen, phospholipidosis by LipidTOX staining; higher = more effect of the substance
Details: 10 µM
Protocol: To measure drug-induced PLD in Vero-E6 cells, we used the HCS LipidTOX Red Phospholipidosis Detection Reagent (Invitrogen, #H34351), which is non-toxic to cell growth and remains well retained after aldehyde fixation. In this setup, compounds (at 10 μM concentration) and controls (amiodarone: 10 μM concentration; DMSO: 0.1 v/v %) were added to clear-bottom, 384-well plates (PhenoPlate 384-well, black, optically clear flat bottom, tissue-culture treated, Revvity #6057302) using the Echo Liquid Handler (Labcyte).

SMILES | result_ITMP
CC(C)(C)[C@]1(O)CCN2C[C@H]3c4ccccc4CCc4cccc(c43)[C@@H]2C1 | 6.12%
O=C(O)c1cc2ccccc2s1 | -4.49%
CCCN1CCC[C@H](c2cccc(O)c2)C1 | 7.69%
CO/N=C(\C(=O)N[C@@H]1C(=O)N2C(C(=O)O)=C(Cn3ccc(=N)n3CCO)CS[C@H]12)c1csc(N)n1 | -5.46%
COc1cc(/C=C(\C#N)C(N)=O)cc(CSc2nc3ccccc3s2)c1O | -3.59%
O=C(O)c1ccc(CN2CCC(CN[C@@H]3C[C@H]3c3ccccc3)CC2)cc1 | -1.25%
CC(C)c1nnc(-c2ccc(-c3ccccc3)nc2)n1-c1cccc2nonc12 | -2.24%
CCOCC(O)COc1ccc(NC(=O)CC[S+](C)C)cc1 (centres unmarked) | -1.75%
COc1ccc(Nc2ccn(-c3ccccc3)n2)cc1 | -5.34%
C[C@@H](N)[C@@H](O)c1ccccc1 | -1.41%
CN1CCN(CCOc2cc(OC3CCOCC3)c3c(Nc4c(Cl)ccc5c4OCO5)ncnc3c2)CC1 | 58.5%
C[C@@H](N)c1ccc(C(=O)Nc2ccnc3[nH]ccc23)cc1 | -2.05%
CCN(C)C(=O)Oc1cccc([C@H](C)N(C)C)c1 | 1.78%
Nc1ccc(S(=O)(=O)Nc2ccnn2-c2ccccc2)cc1 | -1.2%
CCO[C@@H](Cc1ccc(OCCn2c(C)ccc2-c2ccc(SC)cc2)cc1)C(=O)O | -1.11%
CC(=O)N[C@H]1[C@H]([C@H](O)[C@H](O)CO)O[C@](O)(C(=O)O)C[C@@H]1O | -2.76%
C[C@@H]1O[C@@]2(CS1)CN1CCC2CC1.C[C@H]1O[C@]2(CS1)CN1CCC2CC1 | 15.1%
O=C(NCC1CN(c2ccc(N3CCOCC3=O)cc2)C(=O)O1)c1ccc(Cl)s1 (centres unmarked) | -4.55%
N=C(N)S/C=C\C(=O)O | -8.63%

SMILES | result_ITMP
Cc1nnc(NS(=O)(=O)c2ccc(N)cc2)s1 | -4.31%
CC(C)C(C(=O)Nc1nccs1)c1ccc(Cl)cc1 (centres unmarked) | -2.18%
COC(=O)N[C@H](C(=O)N1CCC[C@H]1C(=O)Nc1ccc([C@@H]2CC[C@@H](c3ccc(NC(=O)[C@@H]4CCCN4C(=O)[C@@H](NC(=O)OC)C(C)C)cc3)N2c2ccc(C(C)(C)C)cc2)cc1)C(C)C | 0.51%
NC(=O)CN1C=CCC(C(N)=O)=C1 | -5.03%
COc1cc(NS(C)(=O)=O)ccc1Nc1c2ccccc2nc2ccccc12 | 19.5%
CCn1c(N)c(C(=O)NC)c(=O)c2ccc(C#C[C@@](C)(O)COC)nc21 | -5.39%
CCN1CCC[C@H]1CNC(=O)c1c(OC)ccc(Br)c1OC | -1.75%
CN1[C@@H]2CC[C@H]1C[C@@H](OC(=O)c1c[nH]c3ccccc13)C2.CN1[C@@H]2CC[C@H]1C[C@H](OC(=O)c1c[nH]c3ccccc13)C2 | 19.1%
FC(F)c1nc2ccccc2n1-c1nc(N2CCOCC2)nc(N2CCOCC2)n1 | -0.79%
O=C1C2CC3CC1CC(O)(C3)C2 | -9.98%
C[C@H]1CN(C[C@H](Cc2ccccc2)C(=O)NCC(=O)O)CC[C@@]1(C)c1cccc(O)c1 | -1.66%
CC(C)[C@](O)(c1ccc2cc(OC(F)F)c(OC(F)F)cc2c1)c1c[nH]nn1 | 0.61%
c1cc2c(cc1C1CCCCC1)c1c3n2CCNC3CCC1 (centres unmarked) | 84.2%
COc1ccccc1S(=O)(=O)Nc1ccc2c(c1)CN(C)C(=O)N2 | 26.8%
CC1CC(OC(=O)C(O)c2ccccc2)CC(C)(C)N1C (centres unmarked) | -10.3%
OC[C@@H](O)[C@@H](O)CO | -7.96%
CCN1C[C@]2(OC(=O)c3ccccc3NC(C)=O)CC[C@H](OC)[C@]34C1[C@H](C[C@H]23)[C@@]1(O)C[C@H](OC)[C@H]2C[C@@H]4[C@]1(O)[C@H]2OC | 0%
Cc1cc(NCCO)nc(-c2ccc(Br)cc2)n1 | -1.67%
COc1ccc(O)c(C(C)(C)C)c1 | -3.96%

SMILES | result_ITMP
CCCC[C@H](NC(C)=O)C(=O)N[C@H]1CC(=O)NCCCC[C@@H](C(=O)O)NC(=O)[C@H](Cc2c[nH]c3ccccc23)NC(=O)[C@H](CCCNC(=N)N)NC(=O)[C@@H](Cc2ccccc2)NC(=O)[C@H](Cc2cnc[nH]2)NC1=O | -3.41%
CCOC(=O)C12CC1/C(=N\O)c1ccccc1O2 (centres unmarked) | 0.73%
C=C[C@H]1C[N@]2CC[C@H]1C[C@@H]2[C@@H](OC(=O)OCC)c1ccnc2ccc(OC)cc12 | 6.16%
N=C(N)SCc1ccc(B(O)O)cc1 | -0.1%
CC1(C)O[C@@H]2C[C@H]3[C@@H]4CCC5=CC(=O)C=C[C@]5(C)[C@@]4(F)[C@@H](O)C[C@]3(C)[C@]2(C(=O)CO)O1 | -4.54%
CC1(C)[C@H]2CC[C@@]1(C)[C@H](O)[C@@H]2O | -3.19%
COc1ccc(-n2c(SCc3nc(-c4ccc(C)cc4)no3)nnc2-c2ccncc2)cc1 | -6.01%
N=C(N)SCCc1c[nH]cn1 | 2.68%
CCCCCCCCCCCCCCCCCCO | -3.7%
OC1(c2ccc(Cl)c(C(F)(F)F)c2)CCN(CCCC(c2ccc(F)cc2)c2ccc(F)cc2)CC1 | 36.2%
C[C@@H]1C[C@H]2[C@@H]3CCC4=CC(=O)C=C[C@]4(C)[C@@]3(F)[C@@H](O)C[C@]2(C)[C@@]1(O)C(=O)CO | -3.69%
c1ccc(CN2CCC3(CCc4ccccc43)CC2)cc1 | 2.5%
CCOC(=O)C1=C(C)NC(c2ccccc2)=C(C(=O)OCc2ccc([N+](=O)[O-])cc2)C1C#Cc1ccccc1 (centres unmarked) | -1.26%
CC(CC(c1ccccc1)c1ccccc1)NC(C)(C)C (centres unmarked) | 49.7%
Nc1c(CC(=O)[O-])cccc1C(=O)c1ccccc1 | -2.23%
CC(C)Oc1ccc(C(=O)N[C@H](CNC(=O)CN(C)C)Cc2ccc(-c3cn4cccc([C@H](C)O)c4n3)cc2)cc1Cl | 33%
O=C(O)COC(=O)Cc1ccccc1Nc1c(Cl)cccc1Cl | 0.06%
COc1cc2nccc(Oc3ccc(NC(=O)C4(C(=O)Nc5ccc(F)cc5)CC4)cc3)c2cc1OC | 0.07%
